Results as given in the supplement of paper PMC3334620.
The full ranking holds about 33,000 sequences; the median of “E-score (-0.5 to 0.5)” is about -0.017, and the highest 2% start at about 0.3. Some of the results follow.

Target: T1, Sut1 (UniProt P53032)
T1 sequence: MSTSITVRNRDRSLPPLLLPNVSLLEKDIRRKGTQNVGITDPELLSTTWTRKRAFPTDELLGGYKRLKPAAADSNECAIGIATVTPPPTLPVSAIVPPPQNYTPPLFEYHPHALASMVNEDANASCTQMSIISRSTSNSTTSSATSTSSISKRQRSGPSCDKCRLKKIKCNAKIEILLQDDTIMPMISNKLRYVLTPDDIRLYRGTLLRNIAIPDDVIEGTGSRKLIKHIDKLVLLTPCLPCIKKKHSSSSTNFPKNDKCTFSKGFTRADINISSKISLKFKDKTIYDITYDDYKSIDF
Assay: PBM E-score (8-mer binding enrichment) (E-score (-0.5 to 0.5)); higher = stronger / more preferred TF binding; most listed sequences are background and not binding sites
Details: protein concentration: 200 nM; construct: GST-full length
Method in brief: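 Full-length yeast transcription factors or their DNA-binding domains, GST-tagged and expressed with PURExpress, were applied at about 100-200 nM to universal all-10-mer Agilent arrays. These arrays had been made double-stranded by primer extension on fresh or once-stripped slides. Detection used fluorescent anti-GST, normalisation used masliner, and E-scores for ungapped eight-base words pooled with reverse complements came from the Universal PBM Analysis Suite.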

Sequence | PBM E-score
CACCTGCA | -0.187
GAACGTGA | 0.0996
GCCTCGTA | -0.0323
ACAGACGC | -0.264
ACCCTTTC | -0.123
GACGCTCC | -0.00509
CATGCTAA | -0.137
ATTGTGGG | -0.0003
GCAGTCCA | -0.049
AGCGCGAT | -0.0871
GACCGCAC | -0.192
CTTATCGC | -0.0111
TGGCACCA | -0.182
ACGGTTCC | -0.136
ATGCGCCA | -0.164
AGACGTTC | -0.0869
CCAAACCG | 0.0952
GTCAAGAC | -0.283
ACCTAAAG | -0.081
GCTCCGAC | 0.267
ATTCTGCA | -0.00044
ATCTGGGC | -0.143

Sequence | PBM E-score
ATCGACTA | -0.0299
ACCCAAGG | -0.0883
TAACGGGA | 0.00022
CAAGATGA | -0.187
TATCAGCA | -0.0103
ATCGAAAT | -0.0178
CTGTAATC | -0.115
AGAGATCA | -0.102
ACGGAACT | 0.126
CAAGTTCG | -0.202
ACTCCGTA | 0.478
AGACCAGC | -0.226
ATAATGGG | -0.0182
ATATGTAA | 0.195
CAAGATAA | 0.123
CGGACGAC | -0.0491
AACAGGAC | 0.0542
AACCGCCG | 0.0707
AGACAATG | 0.0774
CGCCGTTC | -0.157
ACGATCGG | 0.176
CCTGAGAC | -0.352

Sequence | PBM E-score
CATATATA | 0.299
GAGCTACA | -0.127
AGGGACCC | -0.167
AGTAAAGC | 0.00918
TCCTTTCA | 0.0506
AAGAAAGT | 0.174
AGGTGTCC | -0.263
ACTCTATA | 0.128
CATCGTAA | 0.173
ACTCACGC | -0.219
GGTCATCA | -0.105
AAATGCGC | 0.177
GTGCAATA | 0.00116
AACCGTTA | -0.146
GATAATGA | 0.174
GACCCATA | 0.101
CCACTACA | 0.0189
CATTGCTA | 0.119
CCTCTTAA | 0.183
AGGGAGAA | -0.0707
CAACCAAA | 0.132
ACAAGTAG | -0.117

Sequence | PBM E-score
AACTCTAC | -0.162
CGTAAGTA | 0.177
AGATAAGC | 0.0592
CTCACATC | 0.00044
CCCAAAGG | -0.138
CCAATTCG | 0.0655
ATTTCGCA | 0.2
AAGGTCTG | 0.0415
AGTAAGCC | -0.0588
GCAAGAAA | 0.119
ATCGTATC | 0.0239
AACTGCCG | 0.00887
CGCAAGAA | 0.0842
CCGAGACG | -0.0262
AATACCGG | 0.244
GGACGGAC | 0.285
GATGGCAA | 0.0398
AGTCCTTG | -0.127
AGTGCCCA | -0.113
CGCCGCTA | 0.0611
